# Assay results as given in PubChem BioAssay AID624417 (National Center for Advancing Translational Sciences (NCATS), 2012).
# Out of some 410,000 compounds screened, about 6,400 (1.6%) were called active. Inconclusive results, whose numbers are uncertain, are shown with a selection of clear calls. Calls come from the whole dose curve; as a rule, active = well fitted inhibition curve with a large enough effect; inconclusive = small, poorly fitted or top-dose-only effect; inactive = no such curve, though single readings can be large or run the other way. Potencies of inconclusive entries are left out as doubtful fits.
# Target: Glucagon-like peptide 1 receptor (Homo sapiens) (UniProt P43220)
# Sequence of UniProt P43220 (P43220 whole entry, looked up): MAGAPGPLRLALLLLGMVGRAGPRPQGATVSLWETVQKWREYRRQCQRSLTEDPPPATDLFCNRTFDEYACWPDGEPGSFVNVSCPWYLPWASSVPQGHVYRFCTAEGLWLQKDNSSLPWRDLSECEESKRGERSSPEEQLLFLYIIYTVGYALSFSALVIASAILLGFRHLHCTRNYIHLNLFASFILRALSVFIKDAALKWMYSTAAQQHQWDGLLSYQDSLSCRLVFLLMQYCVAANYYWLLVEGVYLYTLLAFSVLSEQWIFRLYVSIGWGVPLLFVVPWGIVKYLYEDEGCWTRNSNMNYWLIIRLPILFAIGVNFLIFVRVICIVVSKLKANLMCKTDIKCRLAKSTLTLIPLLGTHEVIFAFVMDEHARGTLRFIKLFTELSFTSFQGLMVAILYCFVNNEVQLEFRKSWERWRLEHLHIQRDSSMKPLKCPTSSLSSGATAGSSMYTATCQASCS
# Experiment: qHTS of GLP-1 Receptor Inverse Agonists (Inhibition Mode); note: nearly all actives have a fitted effect of over 55% in size
# Settings: HEK293 GLP-1R CRE-luciferase, luminescence, 24 h, GLP-1R form is constitutively active; series mostly up to 38.3 µM
# Procedure, shortened: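 Assay principle: reduced luminescence from a cAMP-responsive reporter in HEK293 cells co-expressing a constitutively active GLP-1R. Conditions: 24 hr compound incubation, 37 deg C, 5% CO2.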
# Potency is the fitted concentration of half-maximal effect; tags give direction and shape of the fitted curve.
row,Compound,Potency
1,c1ccc(-c2cc3c(N4CCOCC4)ncnc3s2)cc1,inactive
2,Cc1ccc(C(CCN(Cc2ccccc2)C(=O)c2ccco2)c2ccco2)cc1 (stereo not drawn),"inconclusive [inhibitor, single point]"
3,Cn1cc(CN2CCCCC2CO)c(-c2ccc(Oc3ccccc3)cc2)n1 (stereo not drawn),active: 10 µM
4,CC(=O)c1ccc(NC(=O)C(C)N(C)CC(=O)Nc2ccc(Cl)cc2)cc1 (stereo not drawn),"inconclusive [inhibitor, partial curve, poor fit]"
5,COc1cc(/C=C/c2sc3ccccc3[n+]2CCCS(=O)(=O)[O-])ccc1O,inactive
6,COc1ccc(NC(=S)NC(NC(=O)C(C)C)C(Cl)(Cl)Cl)c([N+](=O)[O-])c1 (stereo not drawn),"inconclusive [inhibitor, partial curve, poor fit]"
7,COc1ccc(C(CNS(=O)(=O)c2ccc(NC(C)=O)c(OC)c2)N2CCCC2)cc1 (stereo not drawn),inactive
8,O=C(NCCOc1ccccc1)C1CCC(=O)N(C2CCCCCC2)C1 (stereo not drawn),inactive
9,CC(/C=C/C=C/c1ccccc1)=N\NC(=O)c1cccnc1,inactive
10,Cc1nn(C)c(Cl)c1NC(=O)OCc1ccc(Cl)cc1Cl,"inconclusive [inhibitor, single point]"
11,CCCCCCCNC(=O)C1(CC2CC(c3ccc(Cl)cc3)=NO2)CCN(C(=O)C2(C)CC2)CC1 (stereo not drawn),"inconclusive [inhibitor, single point]"
12,CC(C)=CCOc1c2ccoc2c(OCC=C(C)C)c2oc(=O)ccc12,"inconclusive [inhibitor, single point]"
13,Cc1cccc(S(=O)(=O)Nc2cccc(-c3ccc(N4CCCCC4)nn3)c2)c1,"inconclusive [inhibitor, single point]"
14,C=C(C(=O)c1ccccc1)C(C(=C)C(=O)c1ccccc1)c1ccc(OC)cc1,"inconclusive [inhibitor, full curve, poor fit]"
15,O=C(Nc1cccc(C(F)(F)F)c1)c1cc2c(s1)-c1ccccc1OC2,"inconclusive [inhibitor, single point]"
16,COc1cc(C(=O)NCC2(N(C)C)CCCCC2)ccc1OCc1ccccc1,"inconclusive [inhibitor, partial curve, poor fit]"
17,COc1ccc(C)cc1-n1nnnc1SCc1nc2ccccc2s1,"inconclusive [inhibitor, partial curve, poor fit]"
18,Fc1ccc(Br)cc1C1C=C(c2ccc(Br)s2)Nc2ncnn21 (stereo not drawn),"inconclusive [inhibitor, full curve, poor fit]"
